Experimental data taken from the supplement of paper PMC11417369.
The list shows a part of the results.

Each sequence was assayed on PF3D7_0420300 AP2 domain 1 (GST-tagged) (assay: gcPBM binding intensity (ln(normalized median fluorescence intensity)); higher = stronger DNA binding).
Procedure, shortened: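 Each value is the highest Masliner-normalised natural-log median intensity across replicate spots of either orientation of a probe. The probes were primer-extended double-stranded 36-bp intergenic genomic sequences on an Agilent 4 × 180k array, alongside negative controls, exposed for 1 h to GST-tagged P. falciparum DNA-binding domains expressed in E. coli. Bound protein was picked up with Alexa488 anti-GST antibody and scanned at 488 nm.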

Going from “AAAAAAAAAAAATGCACACATATATTTCCATATACA [CACACA_site1471]” to “ATATATATATATATATGTACTAATTAATATTTCGAG [XGTACX_site580]”, the “gcPBM binding intensity (ln)” value falls from 9.39 to 9.14.

First: GTATATCATATTTCATGTACACAAAAAAATAAAAAT [XGTACX_site704]
Second: ACAAAATTTACAAAATGTACAAAATTTACAAAGTAT [XGTACX_site6463]
The “gcPBM binding intensity (ln)” value of the first is higher: 9.29 for the first, 9.23 for the second.

First: TATATATATTATATATGTACATATTATATATATATA [XGTACX_site7300]
Second: ATATATTTGATAAGAGTGCACAAATACATACATACA [GTGCAC_site9704]
The “gcPBM binding intensity (ln)” value of the first is lower: 9.07 for the first, 9.54 for the second.

First: TATACATACCATAATGCATGTAAGAACAAATAACTG [TGCATGCA_site264]
Second: AAAAAAAAAAAAAAGGTGCATACTTTGAATTAATAT [GTGCAC_site9401]
The “gcPBM binding intensity (ln)” value of the first is higher: 9.23 for the first, 9.2 for the second.

Compared with “ATGACTCTCAAGTTTGCACACATTTATATTTTTTAA [CACACA_site2605]”, “AAAGTATTCTTTACACGTACATATATATAAATATAA [XGTACX_site7557]” is lower in “gcPBM binding intensity (ln)” value: 9.54 for the first, 8.99 for the second.

Compared with “AATATAAATAATATATGTACATATATATATATATAT [XGTACX_site1021]”, “AGAATTGTTGTTAAAGAATTCTTTTTTATCCTTCCC [CACACA_negctrl_site1820]” is lower in “gcPBM binding intensity (ln)” value: 9.22 for the first, 8.89 for the second.

Compared with “TTTGTATATATTAATGTACACACATGCGTATGTTCG [CACACA_site9193]”, “AATATAGATATAAAAAGTACATTATATATATATATA [XGTACX_site6899]” is lower in “gcPBM binding intensity (ln)” value: 9.55 for the first, 9.33 for the second.

First: GTTAAATAATATATATGTACATACATAAGTGTTACT [XGTACX_site4778]
Second: ATTTCCTTTTGTTTCAGTACATAATTTTTTTTTTTT [XGTACX_site4842]
The “gcPBM binding intensity (ln)” value of the first is lower: 9.28 for the first, 9.54 for the second.

First: TTGCCCATTTAATTAACACACAAATATTTATATTCT [CACACA_site738]
Second: GATATTCATAGAAACACACATACAAATTATGTATAT [CACACA_site144]
The “gcPBM binding intensity (ln)” value of the first is higher: 9.53 for the first, 9.35 for the second.

First: TAATTGTACGCCAATACACACAGAATTAAAATGTAG [CACACA_site4234]
Second: TTTTTAAAGTTTTATACACACACCAAAATTATTCTA [CACACA_site600]
The “gcPBM binding intensity (ln)” value of the first is higher: 9.58 for the first, 9.47 for the second.

Compared with “TATGTGCACCCATGTACATGCGGACATATGTTATAT [TGCATGCA_site383]”, “TATGTATATATATATATATATATATATATATATATA [TGCATGCA_negctrl_site491]” is lower in “gcPBM binding intensity (ln)” value: 9.05 for the first, 8.78 for the second.

Going from “ATGGCCACTGTGAAATGTACAAAAAAAAAATACAAT [XGTACX_site2874]” to “CATACAAATTAATATGTACACACAAATATATATATA [CACACA_site8605]”, the “gcPBM binding intensity (ln)” value rises from 9.4 to 9.61.

First: AGTAGTCTGGAGAAAAGTACATAGTATCTGGTAACC [XGTACX_site2024]
Second: TTTTACAATAATAAGTAGATCTAAATAAAGATTTAA [GTGCAC_negctrl_site547]
The “gcPBM binding intensity (ln)” value of the first is higher: 9.29 for the first, 8.96 for the second.

First: TTTATATTATTTAATGAGAAATAATTATAAACAATT [TGCATGCA_negctrl_site65]
Second: TTCCAAAATTGCACATGTACAAAATTCTCCAATATG [XGTACX_site3419]
The “gcPBM binding intensity (ln)” value of the first is lower: 8.8 for the first, 9.09 for the second.

First: TTTTTTTTTTTTTTTTGTACATATTTTAATTTGTTT [XGTACX_site6297]
Second: AAAAAAAAAAAATAATGTACATATGTATTTGAGAAA [XGTACX_site3572]
The “gcPBM binding intensity (ln)” value of the first is lower: 8.75 for the first, 9.23 for the second.

Compared with “AGTATAATAATATTTACACACGCATATGTTATATAT [CACACA_site1476]”, “ATTTAAAAAAAAAAAACACACATGTGAATAGAAAAG [CACACA_site3323]” is lower in “gcPBM binding intensity (ln)” value: 9.57 for the first, 9.38 for the second.

First: TACTGCCTTCCATACCCACACACTTCCCATATATTT [CACACA_site2705]
Second: AAAACGCTACATAATTGTACATGTAGAAATAAAAGC [XGTACX_site2895]
The “gcPBM binding intensity (ln)” value of the first is higher: 9.94 for the first, 9.51 for the second.

Compared with “TCTAAAAATAAGAACACACACATATAAGCATATAAA [CACACA_site2274]”, “ATATATTATATATATTGTACATGTAAAATTTTAAAA [XGTACX_site7197]” is lower in “gcPBM binding intensity (ln)” value: 9.78 for the first, 9.13 for the second.

Going from “TATGTATTTAAATTAACACACATATGTGGTTAATAG [CACACA_site5697]” to “AAAAATTTGGCATACACACACACACCCACACCCACA [CACACA_site587]”, the “gcPBM binding intensity (ln)” value rises from 9.25 to 10.2.

Compared with “ACATATATATATATATATATATATATATCATTATGT [CACACA_negctrl_site724]”, “ACTCTTGATCTGAATGCACACAATAAATTATATAAA [CACACA_site1438]” is higher in “gcPBM binding intensity (ln)” value: 9.11 for the first, 9.37 for the second.

Going from “ATAAATATAATAATCATACACACCAAAGAGAATATT [CACACA_site1888]” to “AAAGTTATTATGCAATAATTATGATAATTAATATAT [TGCATGCA_negctrl_site316]”, the “gcPBM binding intensity (ln)” value falls from 9.79 to 9.17.

First: ATGACTTACATATATAGTACTTTGTTTTGGAGTTGC [XGTACX_site94]
Second: TATGAGGAAACGTGGTGTACTTTTTTTTAATAAAAA [XGTACX_site1351]
The “gcPBM binding intensity (ln)” value of the first is higher: 9.25 for the first, 8.91 for the second.
